# Several values for one entry are separate records, joined by “and”; a condition that tells them apart may be missing. Equal values may be shown once. This list was built around the results that the source calls inconclusive (neither active nor inactive); the mix of calls is not that of the screen. Where the call is inconclusive, the potency comes from a doubtful curve fit. Activity calls are given as the source filed them. Calls follow the shape of the dose curve; as a rule, active = well fitted curve in the direction sought with a large enough effect; inconclusive = small, poorly fitted or top-dose-only effect, or another doubt; inactive = no such curve, though single readings can be large; an effect the other way counts as inactive or inconclusive.
# Key:
# [1] = qHTS of pediatric cancer cell lines to identify multiple opportunities for drug repurposing: Primary screen for DAOY cells (AID 1347090); settings: DAOY medulloblastoma viability, CellTiter-Glo luminescence, 48 h; activity change, negative = cytotoxic: at 46 µM (top of the series) unless noted; also: nearly all actives have a fitted effect of over 55% in size;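 as to activity change, negative = cytotoxic: plate controls were DMSO for no effect and bortezomib for full effect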
# Summary of the method: (§1)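 Viability measured as metabolically active cells via CellTiter-Glo luminescence following 48 hours of compound exposure, 11-point dilutions in confirmatory testing. 500-1,000 cells/well plated 5 hours before dosing; controls were DMSO and 2.3 µM bortezomib.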
# [2] = qHTS of pediatric cancer cell lines to identify multiple opportunities for drug repurposing: Primary screen for SJ-GBM2 cells (AID 1347091); settings: SJ-GBM2 viability, CellTiter-Glo luminescence, 48 h; series mostly up to 46 µM;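 as to activity change, negative = cytotoxic: plate controls were DMSO neutral control for no effect and bortezomib for full effect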
# Summary of the method: as §1
# Potency is read from the fitted curve at half-maximal effect; tags tell the direction and shape of the fitted curve.
compound,measurement,setting,value
C=C1C(=CC=C2CCC[C@]3(C)[C@@H]([C@H](C)CCCC(C)(C)O)CC[C@@H]23)C[C@@H](O)C[C@@H]1O,Potency,[1],active: 4.69 µM
same,Potency,[2],active: 13.2 µM
O=C(Nc1ccccc1-c1cn2c(CN3CCNCC3)csc2n1)c1cnc2ccccc2n1,Potency,[2],"inconclusive: 37.2 µM [cytotoxic, single point]"
CCOc1ccc(Cc2cc([C@@H]3O[C@H](CO)[C@@H](O)[C@H](O)[C@@H]3O)ccc2Cl)cc1,Potency,[1],"inconclusive: 29.6 µM [cytotoxic, single point]"
same,Potency,[2],"inconclusive: 33.2 µM [cytotoxic, single point]"
O=C(O)c1cc(O)c(O)c(O)c1,Potency,[1],inactive
Cc1ccc(C)c(OCCCC(C)(C)C(=O)O)c1,Potency,[1],"inconclusive: 37.2 µM [cytotoxic, single point]"
same,Potency,[2],"inconclusive: 20.9 µM [cytotoxic, partial curve, poor fit]"
Cc1c(N)c(=O)n(-c2ccccc2)n1C,Potency,[2],inactive
COc1cc(Nc2ncc(F)c(Nc3ccc4c(n3)NC(=O)C(C)(C)O4)n2)cc(OC)c1OC,Potency,[1],"inconclusive: 18.7 µM [cytotoxic, partial curve]"
same,Potency,[2],active: 3.72 µM
Oc1ccc2ccccc2c1SSc1c(O)ccc2ccccc12,Potency,[1],"inconclusive: 37.2 µM [cytotoxic, single point]"
same,Potency,[2],"inconclusive: 29.6 µM [cytotoxic, single point]"
O=C(Nc1ccccc1)Nc1ccc(-c2ccc(C(=O)[C@H]3CCC[C@H]3C(=O)O)cc2)cc1,Potency,[1],"inconclusive: 18.7 µM [cytotoxic, single point]"
same,Potency,[2],"inconclusive: 20.9 µM [cytotoxic, single point]"
O=C(O)c1cccc(-c2noc(-c3ccccc3F)n2)c1,Potency,[1],"inconclusive: 21.1 µM [cytotoxic, partial curve]"
same,Potency,[2],"inconclusive: 16.8 µM [cytotoxic, single point]"
O=C(Nc1ccc(F)c(C(F)(F)F)c1)Nc1nnc(-c2ccncc2)s1,Potency,[1],"inconclusive: 18.7 µM [cytotoxic, single point]"
same,Potency,[2],inactive
CC(C)(O)[C@H]1CC[C@@](C)([C@H]2[C@@H](O)C[C@@]3(C)[C@@H]4C[C@H](O[C@@H]5O[C@H](CO)[C@@H](O)[C@H](O)[C@@H]5O)[C@H]5C(C)(C)[C@@H](O[C@@H]6OC[C@@H](O)[C@H](O)[C@@H]6O)CC[C@@]56C[C@@]46CC[C@]23C)O1,Potency,[1],inactive
same,Potency,[2],inactive
CN(C)c1ccc2cc(C(=O)N[C@@H](CCCN=C(N)CCl)C(=O)NCc3ccccc3)ccc2c1,Potency,[1],active: 7.43 µM
O=C(c1ccc(F)c(F)c1Nc1ccc(I)cc1F)N1CC(O)([C@H]2CCCCN2)C1,Potency,[1],active: 18.7 µM
same,Potency,[2],active: 4.69 µM
COc1ccc(-c2oc3cc(OC)ccc3c2C(=O)c2ccc(C#N)cc2)cc1,Potency,[1],"inconclusive: 37.2 µM [cytotoxic, single point]"
O=[N+]([O-])c1ccc(Nc2ccccc2-c2ccccc2)c2nonc12,Potency,[1],"inconclusive: 37.2 µM [cytotoxic, single point]"
same,Potency,[2],"inconclusive: 18.7 µM [cytotoxic, partial curve]"
N#CC(=C(N)Sc1ccccc1N)C(C#N)=C(N)Sc1ccccc1N,Potency,[1],active: 23.5 µM
same,Potency,[2],"inconclusive: 4.18 µM [cytotoxic, partial curve]"
Oc1ccc(C2=Cc3ccc(O)cc3OC2)cc1,Potency,[1],"inconclusive: 9.35 µM [cytotoxic, partial curve]"
Oc1ccc(C2CCN(c3ccnc4ccccc34)CC2)cc1O,Potency,[1],"inconclusive: 18.7 µM [cytotoxic, partial curve]"
same,Potency,[2],"inconclusive: 5.26 µM [cytotoxic, partial curve]"
C[C@@H]1CN(Cc2ccc(F)cc2)[C@@H](C)CN1C(=O)c1cc2c(C(=O)C(=O)N(C)C)cn(C)c2cc1Cl,Potency,[1],"inconclusive: 37.2 µM [cytotoxic, single point]"
same,Potency,[2],"inconclusive: 23.5 µM [cytotoxic, single point]"
Cc1cccc(Nc2nc(-c3ccncc3)cs2)c1,Potency,[1],"inconclusive: 29.6 µM [cytotoxic, single point]"
same,Potency,[2],active: 16.6 µM
COC(=O)C1=C(C)NC(C)=C(C(=O)OCC(C)=O)C1c1ccccc1[N+](=O)[O-] (stereo unspecified),Potency,[1],"inconclusive: 21.1 µM [cytotoxic, partial curve]"
same,Potency,[2],"inconclusive: 33.5 µM [cytotoxic, single point]"
O=C1NC(=O)C(=Cc2ccc3nccnc3c2)S1,Potency,[1],"inconclusive: 6.45 µM [cytotoxic, partial curve]"
same,Potency,[2],active: 8.12 µM
O=C(N[C@@H](c1ccccc1)[C@@H]1CCCCN1)c1cccc(C(F)(F)F)c1Cl,Potency,[2],inactive
Cc1csc(NC(=O)c2sc3nc4c(c(C(F)(F)F)c3c2N)CCC4)n1,Potency,[1],active: 23.5 µM
same,Potency,[2],inactive
O=C(O)C=Cc1ccc(O)c(O)c1,Potency,[1],active: 7.43 µM
same,Potency,[2],inactive
CCOC(=O)N1CCC(n2c(=O)[nH]c3cc(Cl)ccc32)CC1,Potency,[1],"inconclusive: 21.1 µM [cytotoxic, single point]"
O=C(O)c1cc(=O)c2c(OCC(O)COc3cccc4oc(C(=O)O)cc(=O)c34)cccc2o1,Potency,[2],inactive
C[C@H](NC(=O)C(=O)Nc1ccccc1C(C)(C)C)C(=O)N[C@@H](CC(=O)O)C(=O)COc1c(F)c(F)cc(F)c1F,Potency,[1],"inconclusive: 29.6 µM [cytotoxic, single point]"
O=C(/C=C/c1ccccc1)NCCO,Potency,[1],inactive
COc1ccnc(CS(=O)c2nc3ccc(OC(F)F)cc3[nH]2)c1OC (stereo unspecified),Potency,[1],inactive
O=C(CS)Nc1ccccc1,Potency,[1],"inconclusive: 33.5 µM [cytotoxic, partial curve, poor fit]"
same,Potency,[2],"inconclusive: 33.5 µM [cytotoxic, single point]"
C[C@@H]1CCN(C(=O)CC#N)C[C@H]1N(C)c1ncnc2[nH]ccc12,Potency,[1],"inconclusive: 18.7 µM [cytotoxic, partial curve, poor fit]"
same,Potency,[2],inactive
N=c1ccn2c(n1)O[C@H]1[C@@H](O)[C@@H](CO)O[C@H]12,Potency,[1],"inconclusive: 11.8 µM [cytotoxic, partial curve]"
same,Potency,[2],"inconclusive: 2.35 µM [cytotoxic, full curve]"
COc1ccc2c3c1OC1C[C@@H](O)C=C[C@@]31CCN(C)C2 (stereo partly specified),Potency,[1],"inconclusive: 29.6 µM [cytotoxic, single point]"
same,Potency,[2],"inconclusive: 9.35 µM [cytotoxic, single point]"
O=C1NC(=O)C(=Cc2ccc(-c3ccc(F)cc3O)o2)S1,Potency,[1],"inconclusive: 18.7 µM [cytotoxic, partial curve]"
same,Potency,[2],"inconclusive: 5.26 µM [cytotoxic, partial curve]"
N#Cc1ccc(NC(=O)Nc2ccccc2Br)c2n[nH]nc12,Potency,[2],"inconclusive: 16.6 µM [cytotoxic, partial curve]"
CC(=O)Oc1cc2c(s1)CCN(C(C(=O)C1CC1)c1ccccc1F)C2 (stereo unspecified),Potency,[2],"inconclusive: 2.96 µM [cytotoxic, full curve]"
O=C1c2ccccc2C(=O)c2c1ccc(O)c2O,Potency,[2],"inconclusive: 13.3 µM [cytotoxic, partial curve]"
CC(=O)OCC(=O)[C@@]1(O)CC[C@H]2[C@@H]3CCC4=CC(=O)C=C[C@]4(C)[C@H]3[C@@H](O)C[C@@]21C,Potency,[2],inactive
N[C@H](CSC(c1ccccc1)(c1ccccc1)c1ccccc1)C(=O)O,Potency,[2],active: 5.26 µM
Clc1ccccc1-c1nc(-c2ccncc2)no1,Potency,[2],inactive
NCCCNCCSP(=O)(O)O,"activity change, negative = cytotoxic",[2],inactive: 14.1% [at 9.22 µM]
CC[C@]1(O)C[C@H]2CN(CCc3c([nH]c4ccccc34)[C@@](C(=O)OC)(c3cc4c(cc3OC)N(C=O)[C@H]3[C@@](O)(C(=O)OC)[C@H](OC(C)=O)[C@]5(CC)C=CCN6CC[C@]43[C@@H]65)C2)C1,Potency,[2],active: 1 nM and active: 84.1 nM
OC(CN1CCC(Cc2ccc(F)cc2)CC1)c1ccc(Cl)cc1 (stereo unspecified),Potency,[2],"inconclusive: 33.5 µM [cytotoxic, partial curve, poor fit] and inconclusive: 16.6 µM [cytotoxic, partial curve]"
CC(C)(C)c1nnc(NS(=O)(=O)c2ccc(N)cc2)s1,Potency,[2],inactive
CC(C)(C)OC(=O)CN(Cc1ccc(Cl)cc1)Cc1ccc([N+](=O)[O-])s1,Potency,[2],inactive
OCc1cc(C(O)CNCCCCCCOCCCCc2ccccc2)ccc1O (stereo unspecified),Potency,[2],"inconclusive: 29.9 µM [cytotoxic, single point]"
O=c1[nH]c2ccccc2n1CCCN1CCN(C(c2ccccc2)c2ccccc2)CC1,Potency,[2],"inconclusive: 11.9 µM [cytotoxic, partial curve]"
CN1Cc2cc(C(=O)N3CCC(C4CCNCC4)CC3)ccc2NC(CC(=O)O)C1=O (stereo unspecified),Potency,[2],inactive
CCC(C)SSc1ncc[nH]1 (stereo unspecified),Potency,[2],active: 20.9 µM
CC(=O)c1ccc(OCC(=O)N2CCCCC2)cc1,Potency,[2],inactive
Nc1c(CC(=O)O)cccc1C(=O)c1ccc(Br)cc1,Potency,[2],inactive
Cc1c(C)n(Cc2ccccc2)c2ccc(C(=O)OCCN(C)C)cc12,Potency,[2],"inconclusive: 29.9 µM [cytotoxic, single point]"
O=C(Nc1ccccc1)OCC(CN1CCCCC1)OC(=O)Nc1ccccc1 (stereo unspecified),Potency,[2],"inconclusive: 26.6 µM [cytotoxic, single point]"
Nc1nc2ccc(OC(F)(F)F)cc2s1,Potency,[2],"inconclusive: 20.9 µM [cytotoxic, partial curve]"
Cc1c(C(=O)O)c(O)cc2c1C(=O)c1c(O)c([C@@H]3O[C@H](CO)[C@@H](O)[C@H](O)[C@H]3O)c(O)c(O)c1C2=O,Potency,[2],"inconclusive: 18.8 µM [cytotoxic, partial curve]"

# From PubChem BioAssay (NCATS)
